This note sets out measurements from the supplement of paper PMC11417369.

The list shows a part of the results.

The assay relates to PfSIP2 AP2 domain 1 (GST-tagged). Put plainly: gcPBM binding intensity (ln(normalized median fluorescence intensity)); higher = stronger DNA binding. In a few lines: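 GST-tagged P. falciparum DNA-binding domains, expressed in E. coli (about 25 μg on average), were applied for 1 h to an Agilent 4 × 180k array of primer-extended double-stranded 36-bp intergenic genomic probes plus negative controls. The binding buffer was 1× PBS with 1% milk, 0.2 mg/ml BSA, 0.5% salmon testes DNA and 0.03% Triton X-100. Bound protein was detected with Alexa488 anti-GST antibody and scanned at 488 nm. Binding intensity is the highest Masliner-normalised natural-log median intensity across replicate spots of either probe orientation.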
In the case of “GAAGAGACTTAGAAAACACACATACATAAGATAATT [CACACA_site5333]”, the “gcPBM binding intensity (ln)” value turned out to be 6.8.

Take “AAAAAAAAAAAAAAAACACACATAAAACTATAATAA [CACACA_site7758]”: the “gcPBM binding intensity (ln)” value was 7.62.

With “ATATGTATCTCATCGTGTACATGTATATAATATATA [XGTACX_site4139]”, the “gcPBM binding intensity (ln)” value came out at 7.13.

“ATATAGTAAAGTTATACACACATGAATTTTCCCATG [CACACA_site6923]”: the “gcPBM binding intensity (ln)” value came to 6.7.

As for “TTAGAAAAATTATATATACACACTTATATTTATATA [CACACA_site2821]”, the “gcPBM binding intensity (ln)” value was 6.62.

For the sequence “ATATATCAAAATAATTGTACAAATTTTATATAATTT [XGTACX_site7249]”, the “gcPBM binding intensity (ln)” value was determined as 6.96.

For the sequence “AATATAAATGTGATTACACACAACACATTTAAATGT [CACACA_site1212]”, the “gcPBM binding intensity (ln)” value is 6.79.

Turning to “GTCATATATAATTGTTGTACATTTTTATAATTATGT [XGTACX_site8091]”, the “gcPBM binding intensity (ln)” value came to 7.21.

As to “AATTTTCTTAAAATTTGTACGTATATATTTAATATA [XGTACX_site3906]”, the “gcPBM binding intensity (ln)” value was 7.09.

With “TATATATACTATAACACACATACACCCAAAAAAAAA [CACACA_site536]”, the “gcPBM binding intensity (ln)” value came to 7.29.

Take “AAAAAATTATATTATGCACACATCGTTATATATATA [CACACA_site1201]”: the “gcPBM binding intensity (ln)” value amounted to 8.28.

On to “CTTATACATATATATAGTACATATATCATTTTTATG [XGTACX_site4462]”, for which the “gcPBM binding intensity (ln)” value came to 7.21.

Consider “AAAAATAAATTTATATATTACAAGAACAAATATAGT [XGTACX_negctrl_site567]”, for which the “gcPBM binding intensity (ln)” value was 7.35.

For the sequence “GAATAAATAAGATACGTACACACATATACAAAATAT [CACACA_site3660]”, the “gcPBM binding intensity (ln)” value is 7.22.

As for “AAAAGGAAAGGAAAGGGTACAATCCTATTATATTAT [XGTACX_site8652]”, the “gcPBM binding intensity (ln)” value was 6.7.

On to “ATAATATAAACGTATACACACAAGAGAAGCATAAAG [CACACA_site2889]”, for which the “gcPBM binding intensity (ln)” value is 7.27.

Regarding “TTTTTTTAAAAAAAGGGTACATATATATATTTTTCT [XGTACX_site1066]”, the “gcPBM binding intensity (ln)” value was found to be 7.07.

As for “GTATTACATGAGGACACACACAAAAAAAATATATAT [CACACA_site769]”, the “gcPBM binding intensity (ln)” value is 7.26.

On to “TAATTATTTTAAAAAGTGCATTAAAAGATATTAAAT [GTGCAC_site9694]”, for which the “gcPBM binding intensity (ln)” value came to 8.22.

Regarding “TTATTATAAAAATGTAGTACAATACTTTTTTTTTTT [XGTACX_site732]”, the “gcPBM binding intensity (ln)” value was 7.2.

Take “TATATATCTATAAACACACACCAAAATTTGTGCTTT [CACACA_site7448]”: the “gcPBM binding intensity (ln)” value came to 7.09.

Take “AAATAAAAAGAAAAGAAAAAGAAAATAAAAAGAGAA [XGTACX_negctrl_site14]”: the “gcPBM binding intensity (ln)” value amounted to 6.6.

Take “ATAAAATGAACAAACACACACACATATATTTATATA [CACACA_site7181]”: the “gcPBM binding intensity (ln)” value amounted to 6.88.

“ATATATATATATTATATGCACACGTTAAAATTTCAT [CACACA_site709]”: the “gcPBM binding intensity (ln)” value amounted to 8.78.

“ATATACTTTAAAGGTTAAGAAAGAAAAAAAAAAAAA [CACACA_negctrl_site956]”: the “gcPBM binding intensity (ln)” value came to 6.97.

With “ACATTATATTTGGACTGTACTAATATATTGTTATAT [XGTACX_site5573]”, the “gcPBM binding intensity (ln)” value is 7.23.

In the case of “TATACATATATATATTGTACATATTATATATATATA [XGTACX_site3286]”, the “gcPBM binding intensity (ln)” value was found to be 8.98.

As for “ATATATATATATATATGTACATATTGTATCTTATAC [XGTACX_site5466]”, the “gcPBM binding intensity (ln)” value stood at 9.35.

As for “TTATATTTAGTATATGCACACTTTATGTTTGTTATT [CACACA_site5163]”, the “gcPBM binding intensity (ln)” value was 7.74.

Regarding “TATAAATACGAACACACACACCTTATAATTACTACT [CACACA_site7827]”, the “gcPBM binding intensity (ln)” value came to 6.98.

As to “AAGAAAGGTTAAACATGTACATAAATATTTTACATA [XGTACX_site5024]”, the “gcPBM binding intensity (ln)” value turned out to be 7.

In the case of “AAAAACCATTGGCACACACACATAATATATAATATA [CACACA_site4903]”, the “gcPBM binding intensity (ln)” value was 7.09.

As for “TATCTTTTTATTTTTTATTTTTTTTTTATAATTTAC [XGTACX_negctrl_site414]”, the “gcPBM binding intensity (ln)” value turned out to be 6.81.

Consider “ACACATATGTCTTCATGTACATAATATATAAATCTT [XGTACX_site3438]”, for which the “gcPBM binding intensity (ln)” value is 7.26.

As to “TCATTGAAAATTGTTGCACACATAATAATTAAATAT [CACACA_site8554]”, the “gcPBM binding intensity (ln)” value is 7.36.

Consider “CATAAATCAGCCATAACACACATACATATATACATA [CACACA_site8025]”, for which the “gcPBM binding intensity (ln)” value was found to be 6.93.

For the sequence “TCTTGTTTATCAACAGCACACACAACAACAACAACA [CACACA_site8046]”, the “gcPBM binding intensity (ln)” value was 7.56.

As for “TATATATATACAGTTGCATGTTGTGTTTAAAATTTT [TGCATGCA_site816]”, the “gcPBM binding intensity (ln)” value stood at 8.47.

“TGTTAAAAAATGGATGCACACATTAAATAAAAAGTA [CACACA_site1660]”: the “gcPBM binding intensity (ln)” value amounted to 8.9.

As to “TAAAGGTAGATATATTGTACATACACACCTATATAA [XGTACX_site6865]”, the “gcPBM binding intensity (ln)” value amounted to 6.8.

In the case of “TATATATATATATAATGTACTTATATTTTTTTGAGG [XGTACX_site2638]”, the “gcPBM binding intensity (ln)” value was 9.46.

With “ATATGTATAAGTATGTATATTTATTTATACTTATGT [GTGCAC_negctrl_site221]”, the “gcPBM binding intensity (ln)” value amounted to 7.07.

For the sequence “TTAATTAAAACGAATACACACATAAATATGTAAAAG [CACACA_site6707]”, the “gcPBM binding intensity (ln)” value came out at 7.04.

In the case of “AAAAAAAAAAAAAAAAGTACATATATATATTTATAT [XGTACX_site5893]”, the “gcPBM binding intensity (ln)” value amounted to 7.46.
